Measurements reported in PubChem BioAssay AID1745853 (National Center for Advancing Translational Sciences (NCATS), 2022).
This is one part of the list. The main result of the screen is listed elsewhere. These columns were measured beside it and carry no call.

What was measured:
Test in all cases: Primary Screen for Target Class Profiling of Small Molecule Inhibitors of Methyltransferases
[1] = target: Glycine N-methyltransferase (Homo sapiens) (UniProt Q14749); conditions: purified enzyme, MTase-Glo SAH luminescence; measured here: GNMT inhibition; at 40 µM; stronger effect = lower value
Outline: (§1)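 Each enzyme was reacted with SAM and its substrate, with compounds tested once at 40 uM; SAH formed was read by MTase-Glo luminescence.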

[2] = target: Guanidinoacetate N-methyltransferase (Homo sapiens) (UniProt Q14353); conditions: purified enzyme, MTase-Glo SAH luminescence; measured here: GAMT inhibition; at 40 µM; stronger effect = lower value
Outline: as §1

[3] = target: Histamine N-methyltransferase (Homo sapiens) (UniProt P50135); conditions: purified enzyme, MTase-Glo SAH luminescence; measured here: HNMT inhibition; at 40 µM; stronger effect = lower value
Outline: as §1

[4] = target: Nicotinamide N-methyltransferase (Homo sapiens) (UniProt P40261); conditions: purified enzyme, MTase-Glo SAH luminescence; measured here: NNMT inhibition; at 40 µM; stronger effect = lower value
Outline: as §1

[5] = target: Phenylethanolamine N-methyltransferase (Homo sapiens) (UniProt P11086); conditions: purified enzyme, MTase-Glo SAH luminescence; measured here: PNMT inhibition; at 40 µM; stronger effect = lower value
Outline: as §1
% is set by controls: 0 for no effect and ±100 for the full control effect.

Compound | activity change, negative = inhibition [1] [%] | activity change, negative = inhibition [2] [%] | activity change, negative = inhibition [3] [%] | activity change, negative = inhibition [4] [%] | activity change, negative = inhibition [5] [%]
Cc1csc(NC(=O)[C@@H]2C[C@@H](c3ccc(F)cc3)N([S+](=O)([O-])c3cccnc3)C2)n1 | -8.12 | -3.53 | -1.35 | -12.6 | 7.23
CCn1nc(C(C)C)cc1C(=O)N1C[C@@H]2CCN(C)C[C@]2(C(=O)O)C1 | -6.84 | -8.12 | -3.6 | -9.29 | 7.5
CC(CCc1ccccc1)NC(=O)Cn1ccc2cc(S(=O)(=O)N3CCCCC3)ccc21 (stereo not given) | -3.52 | -0.2 | -4.33 | -5.62 | -2.19
CCN1CCCC1CNC(=O)c1cc(S(=O)(=O)CC)c(N)cc1OC (stereo not given) | -0.919 | 10.5 | -2.73 | -5.93 | 0.075
CCOC(=O)c1cc2n(n1)CC(C)(C(=O)NC1CCCCC1)N(c1ccc(F)cc1C)C2=O (stereo not given) | -0.193 | 4.43 | -4.2 | 2.77 | 2.21
CCc1ccc(CNC(=O)c2ncn3c2C(=O)N(C2CC2)C(C)(C(=O)NCc2ccccc2OC)C3)cc1 (stereo not given) | 0.578 | 0 | 0.587 | -0.868 | 0.969
CC(C)Cn1c(=O)c2ccccc2n2c(=O)n(CC(=O)Nc3cccc(F)c3)nc12 | 0.665 | 0 | 8.85 | -2.16 | 1.83
O=C1CN(CC(=O)N2CCC3(CC2)OCCCC3O)C(=O)N1 (stereo not given) | 1.72 | 4.04 | 2.83 | -1.94 | 14.1
Nc1ncc(C(=O)N2CCC3(CC2)[C@H](O)C[C@@H]3O)c(C(F)(F)F)n1 | -2.72 | -2.13 | -0.461 | -3.61 | 1.63
COc1ccc(C(=O)CSc2nnc3n(C)c(=O)c4ccc(C(=O)NC5CCCC5)cc4n23)cc1 | -0.908 | -3.71 | 4.45 | -4.34 | -12.6
CCOC(=O)Cc1ccc(NC(=O)N2CCn3c(C)ccc3C2C(C)C)cc1 (stereo not given) | 0.026 | 4.21 | -9.35 | -7.83 | -4.21
CC(C)c1ccc2c(c1)C(O)CC1C(C)(CO)CCCC21C (stereo not given) | 2.57 | 5.96 | 13 | -11.7 | 3.17
CN(C)C(=O)CCC(=O)N1CC[C@@](C)(O)[C@@H](Cc2ccccc2)C1 | -7.64 | -16.2 | -3.1 | -13.5 | -7.09
COc1cccc([C@@H]2CN(C(=O)c3oc(C)nc3C)C[C@H]2C(=O)O)c1OC | -2.83 | -4.84 | -1.9 | -12.7 | 10.4
CC(C)(C)NC(=O)Nc1cccc(Nc2ncc(F)c(NC(C)(C)CO)n2)c1 | -22 | 4.3 | 2.87 | -16.4 | 0.268
CCOCCCN1C(=O)c2cc(-c3ccc(OC)cc3)nn2CC1(C)C(=O)NCc1ccccc1 (stereo not given) | 1.66 | 3.16 | 1.82 | 6.47 | -0.106
Cn1c(=O)c2ccc(C(=O)NC3CCCCC3)cc2n2c(=O)n(CC(=O)c3ccccc3)nc12 | -2.9 | -4.78 | 0.056 | -6.17 | -6.47
CCCN1CCN(CCCNC(=O)c2cc3n(n2)CC(C)(C(=O)NC2CCCC2)N(C)C3=O)CC1 (stereo not given) | -2.17 | 0 | 3.65 | -6.29 | -3.53
CC1(C(=O)NC2CCCCCC2)Cn2c(ccc2-c2ccco2)C(=O)N1CCc1cccc(Cl)c1 (stereo not given) | -3.31 | 4.72 | -0.764 | 1.91 | -0.797

Compound | activity change, negative = inhibition [1] [%] | activity change, negative = inhibition [2] [%] | activity change, negative = inhibition [3] [%] | activity change, negative = inhibition [4] [%] | activity change, negative = inhibition [5] [%]
O=[S+]1([O-])NC2(CCN(Cc3ccccc3C(F)(F)F)C2)CNc2ccccc21 (stereo not given) | -9.85 | -6.85 | -5.34 | -11.4 | -9.28
O=C1CC2(CCN(C(=O)C3CCN(C(=O)c4ccccc4F)CC3)CC2)Oc2ccccc2N1 | -7.53 | -6.79 | -3.16 | -7.77 | -7.64
O=C(CCc1ccccc1)N1CC(Oc2ccccc2-c2nc(-c3ccccc3)no2)C1 | -4.62 | 1.91 | -1.72 | -12.5 | -3.34
Cc1ccc(C(=O)N2C[C@@H](C)[C@](O)(C3CC3)C2)s1 | -5.18 | -10.6 | -4.56 | -8.29 | -6.67
CC(=O)NC1(C)CCN(Cc2cccc(-c3ccc4c(ccn4C)c3)c2)C1 (stereo not given) | -12 | -11.1 | -45.1 | -18.5 | -20.8
C[C@@H]1C[C@@H](O)[C@@]2(CO)C(CO)=CCC[C@@H]2[C@@]12C[C@@H](c1ccoc1)OC2=O | 2.26 | 1.9 | 7.22 | -7.31 | 1.29
Cc1csc(NC(=O)c2ccc3c(c2)OCC(=O)N(C)C3)n1 | -14.5 | -10.5 | -4.08 | -16.9 | -9.12
CN(C)c1ccc(C2Nc3ccc4ccccc4c3C3=C2C(=O)CC(C)(C)C3)cc1Br (stereo not given) | -3.73 | -20 | 8.7 | -42.5 | -7.66
CCOc1ccccc1CN1C(=O)c2cc(C3CC3)nn2CC1(C)C(=O)NC1CCCCCC1 (stereo not given) | -1.77 | 4.63 | 2.2 | -7.34 | 0.278
CCCN1C(=O)c2cc(C(=O)NCc3cc(OC)ccc3OC)nn2CC1(C)C(=O)NC1CCCC1 (stereo not given) | -5.14 | 1.87 | -5.17 | -5.93 | -3.02
Cc1cc(C)cc(N2C(=O)c3cc4sccc4n3CC2(C)C(=O)NC2CCCC(C)C2C)c1 (stereo not given) | -2 | 5.25 | 0.732 | -1.76 | 1.27
COc1ccc(NC(=O)Cn2c(=O)oc3cc(S(=O)(=O)N4CCCC4)ccc32)cc1 | -0.122 | 5.16 | 0.695 | 2.2 | -4.97
CN1CCN(c2ccc(C(=O)Nc3n[nH]c4ccc(Cc5cc(F)cc(F)c5)cc34)c(NC3CCOCC3)c2)CC1 | -0.396 | 16.4 | -0.137 | -13.6 | 8.76
Cc1ccc(NC(=O)Cn2nc3n(CCCOC(C)C)c(=O)c4ccccc4n3c2=O)cc1C | 2.54 | 0.754 | 4.24 | 1.91 | 3.83
CCc1ccccc1NS(=O)(=O)c1ccc2c(c1)NC(=O)C(C)C(=O)N2 (stereo not given) | -1.64 | 1.27 | -3.79 | 2.33 | -5.2
O=C(C1CCCN1[S+](=O)([O-])c1cccc(C(F)(F)F)c1)N1CCC(N2CCCC2=O)CC1 (stereo not given) | -6.01 | -4.23 | -1.46 | -8.04 | -4.06
Cc1nc([C@@H]2CN(C(=O)c3ccc(Cn4ccnc4)o3)C[C@H]2C(N)=O)n[nH]1 | -0.323 | -0.665 | 0.406 | -2.46 | 13.1
COC(=O)c1cc2n(n1)CC(C)(C(=O)NC1CCCC1)N(Cc1ccc(OC)cc1OC)C2=O (stereo not given) | 2.56 | 3.81 | 9.76 | 2.82 | 3.21
COc1ccc2c(c1)C=C(CN1CCCC(O)(CN(C)C)C1)CO2 (stereo not given) | -1.95 | 1.39 | -4.07 | -6.62 | 13

Compound | activity change, negative = inhibition [1] [%] | activity change, negative = inhibition [2] [%] | activity change, negative = inhibition [3] [%] | activity change, negative = inhibition [4] [%] | activity change, negative = inhibition [5] [%]
NC(=O)CNC(=O)C1=C[C@@H](NC(=O)Cc2cccs2)[C@@H](O)[C@H](O)C1 | -2.85 | -4.37 | -0.413 | -9.32 | 7.74
COc1ccccc1CC(=O)N1CCc2c(nc3cc(-c4ccccc4Cl)[nH]n3c2=O)C1 | -16.3 | -12.3 | -14 | -10.4 | -9.39
COc1ccccc1NC(=O)OCC1CCN(C(=O)OC(C)(C)C)CC1 | -5.12 | 0.717 | 0.086 | -17.9 | -11.4
COc1ccc(CNC(=O)c2ccc3c(=O)nc4c(-c5cccc(C)c5)n[nH]n4c3c2)cc1 | -18.3 | 1.53 | -6.75 | -11.8 | -8.19
OCc1cc(CC2(NCc3ccccc3O)COC2)no1 | -2.31 | -0.588 | 1.4 | -1.62 | 11.1
CCOc1ccc(N2C(=O)c3cc4sccc4n3CC2(C)C(=O)NC2CCCCCCC2)cc1 (stereo not given) | 6.82 | 2.69 | 10.2 | 10.3 | 5.58
O=C(Cn1c(=O)oc2cc(S(=O)(=O)NC3CCCC3)ccc21)NCc1ccc(F)cc1 | -2.06 | 7.02 | 3.09 | 4.06 | -2.53
COc1ccc(N2C(=O)c3cc4occc4n3CC2(C)C(=O)NC2CCCCCCC2)cc1OC (stereo not given) | -9.37 | -0.562 | -3.05 | 0.235 | -4.01
CN(CCc1ccccn1)C(=O)CCC[C@@H]1[C@H]2CCCN3CCC[C@@H](CN1C(=O)c1ccccc1)[C@@H]23 | -5.59 | -2.07 | -5.92 | -10.3 | -6.21
Cc1ccc(CNC(=O)c2ccc3c(c2)CN(Cc2scnc2C)CCO3)cc1 | -5.65 | -1.06 | -4.39 | -10.2 | -7.16
CC(C)c1ccc(CN2CCCC3(CCN(c4ncccc4C(N)=O)C3)C2)cc1 (stereo not given) | -8.91 | -8.66 | -9.45 | -14 | 8.49
CN(C)C[C@@H]1CN(c2ncccn2)C[C@H]1N | -2.95 | -5.55 | -1.2 | -6.68 | -0.501
CCOP(=O)(Cc1ccc(C(=O)Nc2ccc(Br)cc2C#N)cc1)OCC | -6.62 | -6.3 | -11.3 | -24.6 | -11.8
COc1ccc(C2(C(=O)N3CCCC(Cn4c(C)nc5cccnc54)C3)CCCCC2)cc1 (stereo not given) | -6.18 | -6.49 | -2.92 | -21.3 | -2.47
COc1ccc2[nH]c(S(=O)Cc3ncc(C)c(OC)c3C)nc2n1 (stereo not given) | -0.733 | 3.92 | 7.36 | -24 | -4.79
NC(=O)c1ccc2c(c1)C1(CCN(CC3CC3)C1)CN2Cc1ccccc1 (stereo not given) | -24.2 | -10.3 | -39.2 | -26.9 | -47.2
C[C@@H]1O[C@@H](O[C@H]2[C@H](OC(=O)[C@]34CCC(C)(C)C[C@H]3C3=CCC5[C@@]6(C)CC[C@H](O[C@@H]7O[C@H](CO[C@@H]8OC[C@H](O)[C@H](O)[C@H]8O)[C@@H](O)[C@H](O)[C@H]7O)C(C)(C)C6CC[C@@]5(C)[C@]3(C)C[C@H]4O)OC[C@@H](O)[C@@H]2O)[C@H](O)[C@H](O[C@@H]2OC[C@](O)(CO)[C@H]2O)[C@H]1O[C@@H]1OC[C@H](O)[C@H](O[C@@H]2OC[C@@H](O)[C@H](O)[C@H]2O)[C@H]1O (stereo not given in full) | 1.33 | 4.14 | 4.03 | -3.52 | -3.91
CC(=O)Oc1ccc2c(=O)c(C3NC(C(=O)O)Cc4c3[nH]c3ccccc43)coc2c1 (stereo not given) | -16.8 | -1.29 | -26.7 | -4.69 | -6.13
CCOC(=O)c1cc2n(n1)CC(C)(C(=O)NCCC(C)C)N(c1ccc(Cl)cc1)C2=O (stereo not given) | 1.52 | 0.571 | 3.87 | 5.6 | -1.2
